Data on 93 sequences can be found in article PMC10726135.

The other results are listed elsewhere or left out. At the low end of the ranking the order means little. The protein was read in a cell extract, so binding may be indirect.

This experiment concerns the target T1, HNF4alpha8 (COS-7 nuclear extract) (UniProt P41235-5).
T1 sequence: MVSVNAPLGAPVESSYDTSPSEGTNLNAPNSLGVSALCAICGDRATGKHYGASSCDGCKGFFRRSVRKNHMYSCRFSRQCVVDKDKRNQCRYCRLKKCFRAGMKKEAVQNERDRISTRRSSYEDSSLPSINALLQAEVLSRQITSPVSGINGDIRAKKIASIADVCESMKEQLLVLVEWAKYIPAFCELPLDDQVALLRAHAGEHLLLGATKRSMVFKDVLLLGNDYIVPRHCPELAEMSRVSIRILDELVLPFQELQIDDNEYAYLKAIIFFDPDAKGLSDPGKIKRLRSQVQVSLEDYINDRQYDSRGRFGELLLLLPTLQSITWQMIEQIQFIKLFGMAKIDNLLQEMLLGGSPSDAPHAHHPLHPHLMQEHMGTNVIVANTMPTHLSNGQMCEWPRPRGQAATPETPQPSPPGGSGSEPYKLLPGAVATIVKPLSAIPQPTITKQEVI
Briefly: protein-binding microarray. The conditions noted are these: COS-7 nuclear extract on double-stranded Agilent 4x180k PBM; binding buffer, salt, pH and temperature not given; high values mean tight binding; double strand, one strand shown; sequences stand for … in …GCCTAGGGAGATTAGAGTATCGGTCGA
GATAATCACCCGATAAGCTGACCCCAAAAC: the binding signal (log2 normalized intensity) was found to be 5.31.
In the case of TATTTGTTTTCTGTCTTCATCCTGAGAGGG, the binding signal (log2 normalized intensity) was determined as 1.54.
AGACAACCTTTGTTCACAGTGACGTTCTGC: the binding signal (log2 normalized intensity) turned out to be 1.84.
For the sequence TGCAAGGAAATGGATTGCCTCCTAAGGCCT, the binding signal (log2 normalized intensity) was -1.35.
As to TAAACAGAAGAAAGGGGCTAGGGCAAAGAT, the binding signal (log2 normalized intensity) was -1.24.
As to GATCAAAGTTCATTGTAGCCTCAAATTCCT, the binding signal (log2 normalized intensity) was determined as 3.94.
As for ATAGCGCCCACACTGCCCATCCCCACTGAA, the binding signal (log2 normalized intensity) was 3.12.
Under AGCAGGCAGAGGTCAATGTCCACACCCCAG stands 5.16; under TAAAACACAAATCTCCACAAACATACAACC, -1.46.
Under TCACGTACCGGCTAGACAAACAGCTTCTGT stands -1.26.
For the sequence CTGCACCTTGAAACCCCTCCTTACAGTGCC, the binding signal (log2 normalized intensity) worked out at 2.43.
On to AGCAGGTGACCTTCGATCACCTCAAGAAAG, for which the binding signal (log2 normalized intensity) worked out at 4.91.
For the sequence CTCCTGGATTGCAGGTAAACACAGTGATGG, the binding signal (log2 normalized intensity) is 0.15.
Turning to AAGTTTGAAAATGCCTTGAACTATTCACTG, the binding signal (log2 normalized intensity) was -1.32.
Consider AGGGGGAGGAGAGTACTGTCTCTTATCAGC, for which the binding signal (log2 normalized intensity) is -1.2.
Regarding CCCACGGTCAGGACTTGATGATTGACACTA, the binding signal (log2 normalized intensity) is -0.428.
As to CTGGGTGAGCCGCACACCGACTTGCACCAG, the binding signal (log2 normalized intensity) is -1.26.
As to ACTGTAAACCAGCAGTATCTTTGTGTCACC, the binding signal (log2 normalized intensity) came out at 0.555.
For AAGTCTTAGCTCATTTCAGCCTTAACTCAA, the binding signal (log2 normalized intensity) is -1.18.
Take GCAGAAGCAGAGAGAAACTTTGGAAGTAGG: the binding signal (log2 normalized intensity) is -1.22.
On to CCGGAGAGGCTTATTCCGTACAAGGATTCA, for which the binding signal (log2 normalized intensity) was -1.33.
With CAAGCCTGCCGAGGTGTCCTGTAAATAGTG, the binding signal (log2 normalized intensity) is 0.553.
Under ACGCTGTTGTCTGTGACTGGGGTCAAACTC stands 4.79; under TTGCAATAAAAGATTGCATCTGTTTTTATT, -1.22; under CCCTCAGGGATCTTTGCACTTGATGTTCCC, 1.69.
Under AGCAGGCCTCGGGCCTGCGAGGTTACAGGG stands 0.048.
For ATCCGCTAATGACACCAGGGAACACACCAT, the binding signal (log2 normalized intensity) was -1.17.
Consider CTAACATTCAGAGGTCAGGGGAGAGAGGCA, for which the binding signal (log2 normalized intensity) is -1.28.
Take CCCAAAGGCATGAATAGAATGCAACCAAGT: the binding signal (log2 normalized intensity) was -1.14.
For the sequence GAGGTGACCCTTGCACTCATACTTGAAGAC, the binding signal (log2 normalized intensity) stood at 4.75.
As for AAGGCCTTAAAGTGTAAATATTTGAGGACA, the binding signal (log2 normalized intensity) was found to be 0.314.
With TCAGGTAAAGATATGGAACACTTTCAGAGA, the binding signal (log2 normalized intensity) is -0.477.
For the sequence TCCAGGAGGGGAGGAGGGTCAAAACTTCAG, the binding signal (log2 normalized intensity) is -1.31.
For the sequence GCAGAAAACGCAATTGCCCTACAGCTCCTG, the binding signal (log2 normalized intensity) is -1.29.
CTGTCCCTCAGTGTGGGACTTTGGTCTGCT: the binding signal (log2 normalized intensity) amounted to 5.11.
As for AGCTGTTATCTTGGTGCCTGCAGAGCCTCC, the binding signal (log2 normalized intensity) is -1.19.
Turning to ATTCCAAGAAGGCAGACTCAAGATAGAGGG, the binding signal (log2 normalized intensity) was -1.22.
As to TTGGAGAAAAAAAACCATTGCAAATTGGAT, the binding signal (log2 normalized intensity) is -1.2.
Under ACCAAGTACCGCAAACAAGGTGGCTTGAAA stands -1.38; under GGCCAAAGTACGCTCCACCCCTCAGCCTTT, 3.21.
Under GCGGCTCCGGGAGCTGGCGGCGCGGCCGGA stands -1.26; under TCTCTGAGCAGTGAATGTTGAAGTCCCACG, 0.39; under AAAGAGAGAGTTAGTTCTGCAAACACCCCT, 1.84.
In the case of CAATGTGCTCATCCATAAAATGGGGTAATG, the binding signal (log2 normalized intensity) came out at 1.03.
With CCCAGATGGGCTGGCAGAGGGGATCAAGTG, the binding signal (log2 normalized intensity) was -1.34.
Consider TAACCCCCTTGTCTTCCTCAAATTACAAAA, for which the binding signal (log2 normalized intensity) stood at 1.89.
For the sequence GAGGGCAACCTTTGAACTGGGTCTTAATAA, the binding signal (log2 normalized intensity) was found to be 4.2.
Regarding GAAAACCTTGTCTAAGCCCTTATCAAAAAG, the binding signal (log2 normalized intensity) was -1.33.
Next, TGACACCTAGCTGAGCAGGGGACTAAGAGC: -1.21.
In the case of TGACTGATTCCTGCTGAGAGAGCAGGTTGA, the binding signal (log2 normalized intensity) is -0.841.
As to GAGTTCAAAGGATACAGATAAATAAATCAA, the binding signal (log2 normalized intensity) is -1.37.
Turning to GATCCTCATTTCCCCATTCCTAAGTTCCAA, the binding signal (log2 normalized intensity) came out at 1.82.
Take TGGAGAATGGATCTAAGGACAAAGTCCAAG: the binding signal (log2 normalized intensity) amounted to 6.94.
For the sequence TTATCAGCTGCTAAGTCTTTCCACACAGCC, the binding signal (log2 normalized intensity) is -1.33.
For the sequence TGCTTATTTCCCATCAAGGATCAAGGACCT, the binding signal (log2 normalized intensity) came to 1.04.
Under GTTGAGGTAGAGGGACACTGATAACATGAG stands -1.29; under AAAATCACACTGGGAATTGGGATGGCAGCT, -1.43.
On to CCAGTTTCTCAACAGACCCCTGAATTGGTC, for which the binding signal (log2 normalized intensity) came out at 2.18.
On to TCTTTCCACACAGCCTGTCAAAGGGAGAAA, for which the binding signal (log2 normalized intensity) was -1.28.
Next, GAAGGTGCTCAGAAAATTGATTCTAATCTC: -1.23.
Take ACTGGGGACTAGTAGAGTGGGGAGGTAGGG: the binding signal (log2 normalized intensity) was -1.14.
Turning to AGGTCACATAGCAGGCATACCAGGCAGAGG, the binding signal (log2 normalized intensity) was -1.36.
Consider AATGCACCCAGAACCCCCAGGTCACCCACA, for which the binding signal (log2 normalized intensity) was determined as 4.67.
Regarding CTGGACTTTCCTTTGTTGGGAGACTTTTTA, the binding signal (log2 normalized intensity) turned out to be 1.45.
In the case of AAAAGCAGGCAACCAAGGGTACACACCGTT, the binding signal (log2 normalized intensity) is -1.24.
Under CACCTTCTACACAGCACCCCTTGCAAATAA stands 2.2; under AATGCCAGGACCCTGTGGGACTGGTTTCAA, -1.35; under GTCTCCAGCCCCCAGAGGTCACACTGATAC, 3.87.
With CCTGTTAAAAACACGAGCTATTGCGAGGTT, the binding signal (log2 normalized intensity) is -1.38.
As for CTCATTCTTGGAATGCATTGCAAGTCGTAT, the binding signal (log2 normalized intensity) was found to be 1.25.
For the sequence TGGAATTTGAACCTACACCTATGTGGTCAA, the binding signal (log2 normalized intensity) was 3.09.
In the case of TTTTCTATTTCCACTGAGGTCAAGATAAGA, the binding signal (log2 normalized intensity) stood at 1.52.
Regarding GCTCATTCCCTAGGGCTCGGCATTCAGACA, the binding signal (log2 normalized intensity) is -1.32.
As for TAACCTGCTCTCTCATGCCCTTTGCCTCCC, the binding signal (log2 normalized intensity) stood at 5.01.
Take TCCAGACTTTGTACAAGGGCACTAGCTCTT: the binding signal (log2 normalized intensity) worked out at 0.395.
With TTAGTTCTTTGTAGGAAGGCTTTGAAGTCT, the binding signal (log2 normalized intensity) amounted to 0.157.
With ATTCCTACTAATTTTGTTTCCTAGTTCAAA, the binding signal (log2 normalized intensity) is 0.156.
GAGGAGGCCTTTCCTGACCCCTCCTCCCCC: the binding signal (log2 normalized intensity) turned out to be 5.72.
On to GTGGATATTGGGAGGCCCATTGTGCTGGGG, for which the binding signal (log2 normalized intensity) turned out to be 0.52.
As for TTTGATGGACATTGCTGGTGGTGGTAGATC, the binding signal (log2 normalized intensity) turned out to be 1.45.
Next, GCCAGGCAGGACAGTTTTGTGTGTTTAATG: 0.878; AGCCCTGTTGACATCTTGATTTAGCCCAGT: 0.0235.
For the sequence CCAAACTGGTTTCTCCGCTCGGGGAGGTGC, the binding signal (log2 normalized intensity) is -1.2.
Regarding CCATTGTATGAGGGTGAAGTTTGGCAATTA, the binding signal (log2 normalized intensity) was 0.417.
In the case of TCTGACCCATTCCTTCTCACCGGGTGGAGC, the binding signal (log2 normalized intensity) worked out at 0.533.
Regarding ATCATCTACTATGTGCCAGACACTGCTCTA, the binding signal (log2 normalized intensity) is -1.3.
Turning to GGAGGTTCTTGTTTAATTCTTTTCAACTGG, the binding signal (log2 normalized intensity) amounted to 1.25.
With CGCCAGCGCCCCCGTGTGGCCGCGAGCACC, the binding signal (log2 normalized intensity) stood at 2.86.
Regarding AGTATATTGGCTTGGCTGTGTCCCTTGACC, the binding signal (log2 normalized intensity) is 3.67.
Under ACTGGGGATAGAATCAAAGGTCAGGAATCG stands 4.02; under CGGTCAGCTGCTTGACTTAGTACATGGCCT, 0.903.
With AACTGGGGGCATAGCCCATGCAAATACTCG, the binding signal (log2 normalized intensity) is -1.43.
As for ATGGCCAGCCTTTGGACTTTGAACTGCAAC, the binding signal (log2 normalized intensity) came out at 10.1.
